According to ChEMBL document CHEMBL4888484, “Replenishing the malaria drug discovery pipeline: Screening and hit evaluation of the MMV Hit Generation Library 1 (HGL1) against asexual blood stage Plasmodium falciparum ,using a nano luciferase reporter read-out” (2022):
Where “and” joins values, the source holds several entries; their conditions need not be identical. Equal values may be shown once. The whole screen tested about 150,000 compounds, of which about 540 (0.36%) showed an effect of 50% or more. The list shows a part of the results.

Test system: Plasmodium falciparum
Assay: Primary screen in NF54 nanoGlo assay, in single point, at 2uM, 72h; a lower Z score goes with more inhibition
Type: functional, Erythrocyte
Conditions: timepoint 72 hour

| Structure (SMILES) | % Inhibition | Z score | % Inhibition (2 µM) | Z score (2 µM) |
| --- | --- | --- | --- | --- |
| O=C(c1ccc2nncn2c1)N1CCC(COc2ccccn2)CC1 | 2% | -0.21 |  |  |
| O=C(c1cccnc1)N1C[C@H]2CC[C@@H](C1)N(C/C=C/c1ccc(F)cc1)C2 | 1% | -0.14 |  |  |
| COc1ccc(F)cc1CN1CCS(=O)(=O)C[C@H]1c1ccccc1 | 0% | -0.02 |  |  |
| COC(=O)c1cccc(NS(=O)(=O)c2ccc(OC)c(C(=O)N3CCOCC3)c2)c1C | -2% | 0.3 |  |  |
| COc1ccc(-c2cc(C(=O)Nc3ncc[nH]3)n[nH]2)cc1OC | 34% | -2.42 |  |  |
| CN(C)[C@H]1CCCN(C(=O)Nc2ccc(CC(F)(F)F)cc2)CC1 | -6% | 0.79 |  |  |
| CC(C)c1cc(C(=O)N2CCC[C@@H]2CC(=O)c2ccccc2)n[nH]1 | -9% | 0.92 |  |  |
| CCc1ccc(C(=O)N(C)C[C@H]2CCCCO2)[nH]1 | -6% | 1.1 |  |  |
| CC(=O)Nc1ccc(CN2C[C@@H](F)[C@@H](OCc3nc4ncccc4[nH]3)C2)cc1 | 17% | -2 |  |  |
| Fc1cccc(Cn2ccnc2-c2cccs2)c1 | -9% | 1.24 |  |  |
| CN(C)[C@H]1CN(Cc2ccco2)C[C@@H]1C1CC1 | -14% | 2.48 |  |  |
| O=C(Nc1ccc(Oc2ccc3nsnc3c2)c(Cl)c1)c1cc(Cl)ccc1O | 5% | -0.45 |  |  |
| C[C@H](NC(=O)c1n[nH]c2ccccc12)c1ccncc1 | -8% | 0.64 |  |  |
| Cc1cc(CC(=O)N[C@@H](C(=O)O)c2ccc(F)c(C)c2)no1 | 4% | -0.48 |  |  |
| C[C@@H]1OC2(CCN(Cc3noc(Cc4ccccc4)n3)CC2)NC1=O | -5% | 0.76 |  |  |
| Cc1ccc2oc(-c3nnc(C(=O)NCCCN4CCCC4)o3)c(C)c2c1 | 14% | -1.68 |  |  |
| COc1cc(Cl)cc(CN2CC(O)C2)c1OC | -15% | 2.77 |  |  |
| Cc1cc(C)n(CC2CCN(C(=O)c3c(O)cccc3O)CC2)n1 | -11% | 1.21 |  |  |
| O=C1C[C@H](C(=O)Nc2ccc(NCc3ccccc3)c(Cl)c2)CN1 | -15% | 1.86 |  |  |
| Cc1ccc([C@@H]2Cn3cnc(C(=O)N4CCC(C(=O)NCC5CC5)CC4)c3CO2)cc1 | -16% | 1.8 |  |  |
| Cc1ccc(NC2CCN(C(=O)Nc3ccccc3C)CC2)cc1 | -5% | 0.75 |  |  |
| CCn1nnc(NC(=O)c2ccc(Cl)o2)n1 | 0% | 0.03 |  |  |
| Cn1cc([C@@H]2CCCN2Cc2noc(C(C)(C)C)n2)cn1 | 1% | -0.21 |  |  |
| COc1cc(C(=O)N2CC[C@@H]3CC[C@@]32c2cccnc2)sn1 | 4% | -0.74 |  |  |
| Cn1ncc(C(=O)N[C@H]2CCC[C@@H](C3CC3)C2)c1-n1cnnc1 | -4% | 0.79 |  |  |
| COC[C@@H]1CCC[C@@H]1NC(=O)c1cnc(N)nc1C | -3% | 0.56 |  |  |
| Cc1nc(CN2CCS(=O)(=O)[C@@H](C)C2)oc1C | -9% | 1.07 |  |  |
| Fc1ccc(-c2noc([C@@H]3CCCN3CC3CCCCC3)n2)nc1 | -5% | 0.66 |  |  |

| Structure (SMILES) | % Inhibition | Z score | % Inhibition (2 µM) | Z score (2 µM) |
| --- | --- | --- | --- | --- |
| CN(C)C(=O)c1cc[nH]c1[C@H]1CCCN(Cc2ccc(F)cc2Cl)C1 | 11% | -1.39 |  |  |
| COCCN1C[C@H]2CN(Cc3cnn(C)c3)CCN2C1=O | -3% | 0.61 |  |  |
| CCC(NC(C)c1sccc1C)c1c(C)nn(C)c1C (stereo not given) | 3% | -0.37 |  |  |
| Cc1csc([C@H](C)NCCOc2cccc(C#N)c2)n1 | -2% | 0.28 |  |  |
| CCc1nn(C)c(Nc2nc3c(s2)c(C)nn3C)c1C | -8% | 1.44 |  |  |
| CCc1cc(C(=O)N2CCC[C@H](N)C2)cc(=O)[nH]1 | 1% | -0.18 |  |  |
| O=C(c1cccc(C(F)(F)F)c1F)N1CCC2CCC(C1)N2 (stereo not given) | -11% | 2.16 |  |  |
| CC(C)c1ccc(CN2CCC[C@@](O)(CN3CCOCC3)C2=O)cc1 | -4% | 0.57 |  |  |
| Cc1cc(C)c(-c2csc(NC(=O)c3cccc(N(C)C)c3)n2)cc1C | -4% | 0.84 |  |  |
| CCNC(=O)NCCOC(=O)c1ccccc1F | -19% | 1.9 |  |  |
| CCOC(=O)c1nn(C)cc1CNc1ccc(Cl)cn1 | -2% | 0.29 |  |  |
| Cn1ccnc1CN1C[C@@H](F)C[C@H]1CNCc1c(Cl)cnn1C | -8% | 1.01 |  |  |
| CCc1nc(-c2cc(C)n(C)n2)n(-c2ccncc2)n1 | 4% | -0.44 |  |  |
| CN(C)C(=O)C1(N(C(=O)OC(C)(C)C)C2CC2)CCC1 | -11% | 1.07 |  |  |
| Cc1noc(-c2csc(C(=O)NC3CC3)n2)n1 | 1% | -0.11 |  |  |
| N#Cc1cn[nH]c1NC(=O)C(=O)NCCc1c[nH]c2ccccc12 |  |  | -4% and -7% | 0.49 and 0.87 |
| Cc1[nH]ccc1C(=O)NCc1ccc(N2CCCC[C@@H]2CCO)nc1 | -9% | 1.21 |  |  |
| COc1ccc(C2=C[C@@H](c3ccc(F)cc3)n3ncc(C(=O)Nc4ccc(C)cc4)c3N2)cc1 | 2% | -0.16 |  |  |
| CCn1nc(CNC(=O)COC[C@H]2CCCO2)c2ccccc21 | 2% | -0.38 |  |  |
| Cc1ccn2c(Nc3ccc4c(c3)OCO4)c(-c3ccco3)nc2c1 | -16% | 1.81 |  |  |
| Cc1nnc(NC(=O)Cn2ccc3cc(OCc4ccccc4)ccc32)s1 | -4% | 0.52 |  |  |
| Cc1ccc(F)cc1CNCCc1nnc[nH]1 | -20% | 2.59 |  |  |
| COC1CCN(C(=O)C2=NN(c3ccccc3)C(=O)CC2)CC1 | -40% | 4.7 |  |  |
| Cc1ccc(C)c(Cn2cnc3c(nnn3C)c2=O)c1 | -9% | 1.37 |  |  |
| CCc1cnc(N(C)Cc2cc(C3CC3)on2)nc1 | -13% | 1.46 |  |  |
| Cc1ccc2nc(NC(=O)[C@H]3CCCN(S(=O)(=O)c4cc(-c5noc(C)n5)sc4C)C3)sc2c1 | 2% | -0.22 |  |  |
| Cc1ocnc1C(=O)NCc1ccc2[nH]c(-c3ccc(F)cc3)c(C)c2c1 | -12% | 1.4 |  |  |
